Experimental data as given in ChEMBL document CHEMBL4888484, “Replenishing the malaria drug discovery pipeline: Screening and hit evaluation of the MMV Hit Generation Library 1 (HGL1) against asexual blood stage Plasmodium falciparum ,using a nano luciferase reporter read-out” (2022).
The campaign covered roughly 150,000 compounds. About 540 (0.36%) showed an effect of 50% or more. The list shows a part of the results.

Test system: Plasmodium falciparum
Assay: Primary screen in NF54 nanoGlo assay, in single point, at 2uM, 72h; a lower Z score goes with more inhibition
Format: functional, Erythrocyte
Details: timepoint 72 hour

Row | Structure (SMILES) | % Inhibition | Z score
1 | COc1ccc(-c2ccnn3c(N)nc(-c4ccccc4)c23)cc1 | -14% | 1.79
2 | CCCCOc1ccc(C(=O)Nc2ccncc2NC(=O)c2ccc(OCCCC)cc2)cc1 | -7% | 1.22
3 | Cc1csc([C@@H]2CCCN2C(=O)c2cc3cnccc3[nH]2)n1 | 12% | -1.35
4 | CCC(CC)(CCO)CN[C@H]1CCc2c(cccc2OC)C1 | -5% | 1.02
5 | CCc1ncnc(NCC2(S(N)(=O)=O)CCC2)c1F | -9% | 1.54
6 | CC[C@@H](COC)n1cnc(-c2ccccc2)c1-c1cc(C)n[nH]1 | -4% | 0.71
7 | Cc1ccc(C(=O)N2CCN(c3nc4cc(C)c(C)cc4nc3C(F)(F)F)CC2)cc1 | -4% | 0.81
8 | CC(C)c1nc(CNc2cnccn2)c[nH]1 | -20% | 2.18
9 | COCCO[C@H]1CN(C2CCN(C(=O)Nc3ccccc3F)CC2)C12CCCCC2 | -3% | 0.49
10 | Cc1cc(CN(c2ccc(Cl)cc2F)S(C)(=O)=O)nc(C)n1 | -4% | 0.39
11 | CN(CC#N)Cc1cc(F)cc(Br)c1 | -9% | 1.38
12 | Brc1ccc(N=C2CCCCCCN2)cc1 | 2% | -0.22
13 | Cc1cc2c(NC(=O)N3CCC(Cc4noc(C)n4)CC3)cccc2nn1 | -8% | 0.83
14 | Cc1nc(-c2cc(S(=O)(=O)N3CCC[C@H](C(=O)N4CCc5ccccc5C4)C3)c(C)s2)no1 | -9% | 0.89
15 | CCc1ccnc(C(=O)Nc2cc(C(=O)OC)nn2C)c1 | -8% | 0.95
16 | Cc1nn(C)c(C)c1CC(=O)NC(C1CC1)C1CC1 | 3% | -0.42
17 | CC[C@@H](CO)N1CCN(C(=O)CCc2ccc(C)s2)CC1 | -17% | 2.23
18 | CCCc1cc(C(=O)N[C@@H]2C[C@H]3OCC[C@@H]23)no1 | -9% | 1.01
19 | CC(C)COC(=O)N1CCC2(CCN(Cc3cccc(C#N)c3)CC2)CC1 | 0% | 0.04
20 | COc1ccc(CNC(=O)c2ccc(N3C(=O)[C@@H]4Cc5c([nH]c6ccccc56)C(c5cccc(OC)c5)N4C3=O)cc2)cc1 (stereo partly specified) | 49% | -7.23
21 | Cc1ccc2c(Cc3nnn[nH]3)cn(C)c2c1 | 5% | -0.97
22 | O=C(O)[C@H]1CCCN1C(=O)c1cc2cccc(Cl)c2o1 | -16% | 1.38

Row | Structure (SMILES) | % Inhibition | Z score
23 | COc1cc(NC(=O)N(C)CC[C@H]2CCCCO2)cc(-n2cnnn2)c1 | -4% | 0.69
24 | CN(Cc1ccccc1)C(=O)Cn1c(=O)[nH]c2c(-c3ccccc3F)c[nH]c2c1=O | -5% | 0.82
25 | CC(C)(C)C(=O)NC[C@H]1CCCC1(F)F | -8% | 1.66
26 | Cc1ccnc(Oc2cc(N[C@@H](C)c3nnc(C)o3)ccc2C)c1 | -10% | 1.83
27 | CC(NC1CCN(CC(F)(F)F)C1)c1cccc(-n2cccn2)c1 (stereo unspecified) | 1% | -0.15
28 | NC1(c2noc(-c3ccc(Cl)c(C(F)(F)F)c3)n2)CCC1 | 6% | -0.79
29 | CCN(Cc1ccncc1)CC1CCN(c2ccccn2)CC1 | -12% | 1.55
30 | O=C(Cc1nnc(-c2ccccc2)o1)NCc1cccnc1 | 1% | -0.18
31 | c1cnc(N2CCOC3CCCCC32)cn1 (stereo unspecified) | -6% | 0.92
32 | CC(C)c1nc2n(n1)CCCC2NC(C)c1cccc(O)c1 (stereo unspecified) | 7% | -0.87
33 | Cc1noc(C2CN(CCCc3ccccc3)C2)n1 | -7% | 1.37
34 | O=C(Nc1ccccc1N1CCCC1)c1ccc2[nH]c3c(c2c1)CCCC3 | -1% | 0.21
35 | Cc1c2c(nc3c(C(=O)NC4CCCCC4C)cnn13)CCCC2 (stereo unspecified) | -12% | 1.57
36 | C[C@@]1(C(=O)NCc2cccs2)CCCCC(=O)N1 | 3% | -0.4
37 | CC(=O)N1CC(OCC(=O)N(C)c2ccccc2Oc2ccccc2)C1 | -13% | 2.36
38 | C[C@H]1CCOCCN1C(=O)c1ccc(-n2cc[nH]c2=O)cc1 | -3% | 0.62
39 | CC(C)CC(=O)N(Cc1ccccc1)[C@H]1CCS(=O)(=O)C1 | 1% | -0.08
40 | C=CCC1(O)CN(C(=O)CCCOCC)C1 | 2% | -0.34
41 | Cc1ccc(C)c(CC(=O)N2C[C@@H](CN3CCCN(C)CC3)[C@@H](CO)C2)c1 | 4% | -0.49
42 | Cc1cc([C@@H](NC(=O)CN2CCCCC2=O)C2CC2)ccc1F | 3% | -0.35
43 | CCC(NC(=O)N1CCCC1Cn1ccnc1)c1c(C)noc1C (stereo unspecified) | 5% | -0.72
